# The supplement of paper PMC8728848
# Some of the results follow.
# Legend:
# Assay in all cases: glycan array binding signal (z-score within array); higher = stronger binding
# Settings in all cases: glycan notation: IUPAC condensed, linker removed
# [1] = target: Man(a1-2)Man(a1-3)[Man(a1-2)Man(a1-6)]Man(a1-6)[Man(a1-2)Man(a1-2)Man(a1-3)]Man
# In short: (§1)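 Glycan array data were curated from 3228 arrays in the Consortium for Functional Glycomics database and kept only where the protein sequence was available. Glycan names were converted to IUPAC-condensed notation, and columns mapping to the same glycan were averaged. The binding signal is a within-array Z-score, averaged across arrays of the same protein sequence at different concentrations or buffers and across linkers. Negative Z-scores can be read as non-binding.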
# [2] = target: Man(a1-2)Man(a1-3)[Man(a1-2)Man(a1-6)]Man(a1-6)[Man(a1-2)Man(a1-2)Man(a1-3)]Man(b1-4)GlcNAc(b1-4)GlcNAc
# In short: as §1
# [3] = target: Man(a1-2)Man(a1-3)[Man(a1-6)]Man(a1-6)[Man(a1-2)Man(a1-3)]Man(b1-4)GlcNAc(b1-4)GlcNAc
# In short: as §1
# [4] = target: Man(a1-2)Man(a1-6)[Man(a1-3)]Man(a1-6)[Man(a1-2)Man(a1-2)Man(a1-3)]Man
# In short: as §1
# [5] = target: Man(a1-2)Man(a1-6)[Man(a1-3)]Man(a1-6)[Man(a1-2)Man(a1-2)Man(a1-3)]Man(b1-4)GlcNAc(b1-4)GlcNAc
# In short: as §1
# Man(a1-3)[Man(a1-6)]Man = target: Man(a1-3)[Man(a1-6)]Man
# In short: as §1
# [6] = target: Man(a1-3)[Man(a1-6)]Man(a1-6)[Man(a1-2)Man(a1-3)]Man(b1-4)GlcNAc(b1-4)GlcNAc
# In short: as §1
# [7] = target: Man(a1-3)[Man(a1-6)]Man(a1-6)[Man(a1-3)]Man
# In short: as §1
# [8] = target: Man(a1-3)[Man(a1-6)]Man(a1-6)[Man(a1-3)]Man(b1-4)GlcNAc(b1-4)GlcNAc
# In short: as §1
# [9] = target: Man(a1-3)[Man(a1-6)]Man(b1-4)GlcNAc(b1-4)GlcNAc
# In short: as §1
# [10] = target: Man(a1-3)[Man(a1-6)]Man(b1-4)GlcNAc(b1-4)[Fuc(a1-6)]GlcNAc
# In short: as §1
# Man(a1-6)Man = target: Man(a1-6)Man
# In short: as §1
# Man(b1-4)GlcNAc = target: Man(b1-4)GlcNAc
# In short: as §1
# MurNAc(b1-4)GlcNAc = target: MurNAc(b1-4)GlcNAc
# In short: as §1
# Neu5Ac(a2-3)Gal = target: Neu5Ac(a2-3)Gal
# In short: as §1
# [11] = target: Neu5Ac(a2-3)Gal(b1-3)GalNAc
# In short: as §1
# [12] = target: Neu5Ac(a2-3)Gal(b1-3)GalNAc(b1-3)Gal(a1-4)Gal(b1-4)Glc
# In short: as §1
# [13] = target: Neu5Ac(a2-3)Gal(b1-3)GalNAc(b1-4)[Neu5Ac(a2-3)]Gal(b1-4)Glc
# In short: as §1
# [14] = target: Neu5Ac(a2-3)Gal(b1-3)GalNAc(b1-4)[Neu5Ac(a2-8)Neu5Ac(a2-3)]Gal(b1-4)Glc
# In short: as §1
# [15] = target: Neu5Ac(a2-3)Gal(b1-3)GalNAc6S
# In short: as §1
# [16] = target: Neu5Ac(a2-3)Gal(b1-3)GlcNAc
# In short: as §1
# [17] = target: Neu5Ac(a2-3)Gal(b1-3)GlcNAc(b1-2)Man
# In short: as §1
# [18] = target: Neu5Ac(a2-3)Gal(b1-3)GlcNAc(b1-2)Man(a1-3)[GlcNAc(b1-4)][Neu5Ac(a2-3)Gal(b1-3)GlcNAc(b1-2)Man(a1-6)]Man(b1-4)GlcNAc(b1-4)GlcNAc
# In short: as §1
# [19] = target: Neu5Ac(a2-3)Gal(b1-3)GlcNAc(b1-2)Man(a1-3)[Neu5Ac(a2-3)Gal(b1-3)GlcNAc(b1-2)Man(a1-6)]Man(b1-4)GlcNAc(b1-4)GlcNAc
# In short: as §1
# [20] = target: Neu5Ac(a2-3)Gal(b1-3)GlcNAc(b1-3)Gal(b1-3)GlcNAc
# In short: as §1
# [21] = target: Neu5Ac(a2-3)Gal(b1-3)GlcNAc(b1-3)Gal(b1-4)GlcNAc
# In short: as §1
# [22] = target: Neu5Ac(a2-3)Gal(b1-3)GlcNAc(b1-3)GalNAc
# In short: as §1
# [23] = target: Neu5Ac(a2-3)Gal(b1-3)GlcNAc(b1-4)Gal(b1-4)Glc
# In short: as §1
# [24] = target: Neu5Ac(a2-3)Gal(b1-3)GlcNAc(b1-6)GalNAc
# In short: as §1
# [25] = target: Neu5Ac(a2-3)Gal(b1-3)GlcNAc6S
# In short: as §1
# [26] = target: Neu5Ac(a2-3)Gal(b1-3)[Fuc(a1-4)]GlcNAc
# In short: as §1
# [27] = target: Neu5Ac(a2-3)Gal(b1-3)[Fuc(a1-4)]GlcNAc(b1-3)Gal(b1-3)[Fuc(a1-4)]GlcNAc
# In short: as §1
# [28] = target: Neu5Ac(a2-3)Gal(b1-3)[Fuc(a1-4)]GlcNAc(b1-3)Gal(b1-4)[Fuc(a1-3)]GlcNAc
# In short: as §1
# [29] = target: Neu5Ac(a2-3)Gal(b1-3)[GlcNAc(b1-6)]GalNAc
# In short: as §1
# [30] = target: Neu5Ac(a2-3)Gal(b1-3)[Neu5Ac(a2-6)]GalNAc
# In short: as §1
# [31] = target: Neu5Ac(a2-3)Gal(b1-3)[Neu5Ac(a2-6)]GlcNAc(b1-3)[Fuc(a1-3)[Gal(b1-4)]GlcNAc(b1-6)]Gal(b1-4)Glc
# In short: as §1
# [32] = target: Neu5Ac(a2-3)Gal(b1-3)]Neu5Ac(a2-3)Gal(b1-4)]GlcNAc
# In short: as §1
binder,measurement,setting,value
PX14375C-bth-509-28-509 (Bacteroides thetaiotaomicron) (protein) RSPQGQFTEDDNPNALVNGKIYNVYTMMRSFDITAGTPAIAIHYLRSEDSEKGSIPSDGSDVAEMYDDFLYTPTNGLLGSYWGKNYAIIYQCNDILDAIAEKETAGQTETEDIINKGEASFFRAYCYFNLVRAFGEVPLVTYKINDASEANIPKTTADKIYEQIDTDLKTAEESLPETWSTEYTGRLTWGAARSLHARTYMMRSDWDNMYKASTDVINKGLYNLKTPYNEIFTDDGENSGGSIFELQCTATAALPQSDVIGSQFCEVQGVRGAGQWDLGWGWHMATQLMADAYETGDPRKNATLLYFRKTDDEPITPENTNEPYGESPISPAMGAYFNKKAYTDPALRKEYTNKGFWVNIRLIRYSDVVLMAAEAANEKNIPGEAVDYLEMVRARARGTNTNILPKITTNDQGELREAIRHERRVELGLEPDRFYDLVRWGIASEVLHAAGKVNYQDKNALLPLPQSEIDKSKGVLVQNPDY,glycan array binding signal (z-score),[1],0.053
same,glycan array binding signal (z-score),[2],-0.232
same,glycan array binding signal (z-score),[3],-0.274
same,glycan array binding signal (z-score),[4],-0.001
same,glycan array binding signal (z-score),[5],-0.383
same,glycan array binding signal (z-score),Man(a1-3)[Man(a1-6)]Man,-0.167
same,glycan array binding signal (z-score),[6],-0.163
same,glycan array binding signal (z-score),[7],0.1
same,glycan array binding signal (z-score),[8],-0.118
same,glycan array binding signal (z-score),[9],-0.221
same,glycan array binding signal (z-score),[10],-0.214
same,glycan array binding signal (z-score),Man(a1-6)Man,-0.187
same,glycan array binding signal (z-score),Man(b1-4)GlcNAc,-0.296
same,glycan array binding signal (z-score),MurNAc(b1-4)GlcNAc,-0.413
same,glycan array binding signal (z-score),Neu5Ac(a2-3)Gal,-0.357
same,glycan array binding signal (z-score),[11],-0.245
same,glycan array binding signal (z-score),[12],-0.11
same,glycan array binding signal (z-score),[13],-0.334
same,glycan array binding signal (z-score),[14],-0.021
same,glycan array binding signal (z-score),[15],-0.304
same,glycan array binding signal (z-score),[16],-0.476
same,glycan array binding signal (z-score),[17],-0.329
same,glycan array binding signal (z-score),[18],-0.466
same,glycan array binding signal (z-score),[19],-0.139
same,glycan array binding signal (z-score),[20],-0.422
same,glycan array binding signal (z-score),[21],-0.27
same,glycan array binding signal (z-score),[22],-0.301
same,glycan array binding signal (z-score),[23],-0.469
same,glycan array binding signal (z-score),[24],3.9
same,glycan array binding signal (z-score),[25],-0.357
same,glycan array binding signal (z-score),[26],-0.072
same,glycan array binding signal (z-score),[27],-0.124
same,glycan array binding signal (z-score),[28],-0.251
same,glycan array binding signal (z-score),[29],0.002
same,glycan array binding signal (z-score),[30],-0.13
same,glycan array binding signal (z-score),[31],-0.354
same,glycan array binding signal (z-score),[32],0.356
